The target of experiment [1] is NGF (species not stated) (Homo sapiens (Human)) (UniProt P01138). The experiment is described as follows: cell-based or functional assay.
Experiment [2] shares this target. Kind of experiment: SPR, Biacore 8K; captured on Protein A chip, NGF in solution (the table does not say human or rat).

B1: PetML309 (Human p75NTR ECD partial stalk IgG1) (Fc fusion)
chain: KEACPTGLYTHSGECCKACNLGEGVAQPCGANQTVCEPCLDSVTFSDVVSATEPCKPCTECVGLQSMSAPCVEADDAVCRCAYGYYQDETTGRCEACRVCEAGSGLVFSCQDKQNTVCEECPDGTYSDEANHVDPCLPCTVCEDTERQLRECTRWADAECEEIPGRWITRSTPPEGGGG[sequence of human IgG1 Fc omitted]
For B1, in experiment [1], the Bottom (%), best-fit values, PathHunter TrkA activation assay was determined as 28.7%; the IC50 (nM), PathHunter TrkA activation assay was 18.7 nM; the Top (%), best-fit values, PathHunter TrkA activation assay came out at 97.9%. The Kd in experiment [2] came out at 2.31 nM.

The values are drawn from patent US20240270817A1 (PETMEDIX, published 2024).
